The other results are listed elsewhere or left out. Repeats are few or missing, and single values can be far off.
What follows are molecules tested on HCC-1187 (assay: cell viability relative to vehicle (% of vehicle); basal-like triple-negative breast cancer lines; higher = less cytotoxic). Details: 10 µM; 72 h.
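Note: stably firefly luciferase-GFP labeled cells in 96-well plates, viability read as luciferase photon flux after d-luciferin addition, treated wells normalized to vehicle wells, single-dose high-throughput screen.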

| Compound | cell viability |
| --- | --- |
| CC(C)N=c1cc2n(-c3ccc(Cl)cc3)c3ccccc3nc-2cc1Nc1ccc(Cl)cc1 [Clofazimine] | 84.8 |
| O=C(CCc1ccc(O)cc1)c1c(O)cc(O)cc1OC1OC(CO)C(O)C(O)C1O (centres undefined) [Phloridzin] | 99.2 |
| O=C(CCCN1CCN(c2ccccn2)CC1)c1ccc(F)cc1 [Azaperone] | 104 |
| CC(=O)O[C@@]12CO[C@@H]1C[C@H](O)[C@@]1(C)C(=O)[C@H](O)C3=C(C)[C@@H](OC(=O)[C@H](O)[C@@H](NC(=O)OC(C)(C)C)c4ccccc4)C[C@@](O)([C@@H](OC(=O)c4ccccc4)[C@H]21)C3(C)C [Docetaxel] | 22.5 |
| CC(C)(O)c1ccccc1CCC(SCC1(CC(=O)[O-])CC1)c1cccc(C=Cc2ccc3ccc(Cl)cc3n2)c1.[Na+] (centres undefined) [Montelukast Sodium] | 81.5 |
| Nc1c(CC(=O)[O-])cccc1C(=O)c1ccc(Br)cc1.[Na+] [Bromfenac Sodium] | 109 |
| Cc1cccn2c(=O)c(-c3nnn[n-]3)cnc12.[K+] [Pemirolast potassium] | 101 |
| CNC(=C[N+](=O)[O-])NCCSCc1ccc(CN(C)C)o1.Cl [Ranitidine] | 89.9 |
| O=P(O)(O)C(O)(Cn1ccnc1)P(=O)(O)O [Zoledronic Acid] | 98.7 |

— the supplement of paper PMC8512760
